The results in this text go back to the supplement of paper PMC10037445.

Assay [1] relates to RAW-Dual. Put plainly: IRF Lucia reporter activity, fold change vs agonist alone; cytotoxicity flag (confluency mask): not cytotoxic; higher = enhanced IRF activity. In a few lines: (§1)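 Reporter activity is given as fold change relative to agonist-alone wells. To measure it, 50 nL of library stock was pin-tooled onto RAW-Dual macrophages (50,000 cells/well, DMEM, 384-well plates), a PRR agonist followed 1 h later, and cells stayed at 37 °C, 5% CO2. Twenty hours on, supernatant was assayed for IRF (QuantiLuc luminescence) and NF-κB (QuantiBlue, 620 nm absorbance), and wells under 70% of agonist-control IncuCyte confluency in both mask sets were marked cytotoxic.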

The test system of assay [2] is RAW-Dual. Briefly: IRF Lucia reporter activity, fold change vs agonist alone; higher = enhanced IRF activity. The settings on record: library stock concentration (final ~1000-fold dilution): 10 mM, agonist: MPLA (TLR4) […]. In a few lines:
as §1

Assay [3] has as its system RAW-Dual. Briefly: IRF Lucia reporter activity, fold change vs agonist alone; cytotoxicity flag (confluency mask): cytotoxic (confluency <70% of control); higher = enhanced IRF activity. In a few lines: as §1
Setting [4] is: agonist: 3'3'-cGAMP (STING) 10 ug/mL.
Where [5] appears, read: cytotoxicity flag (confluency mask): not cytotoxic.
Where [6] appears, read: cytotoxicity flag (confluency mask): cytotoxic (confluency <70% of control).

In all, about 2,900 compounds were measured (“IRF Lucia reporter activity, fold change vs agonist alone”: median about 0.9, highest 2% from about 2.8 on). Some of the results follow.

`CC1=NN(c2ccc(C(=O)O)cc2)C(=O)/C1=C\c1ccc(-c2cc(C)c(C)cc2[N+](=O)[O-])o1` (library stock concentration (final ~1000-fold dilution): 10 mM): the “IRF Lucia reporter activity” value was 1.01 in the assay on RAW-Dual [1] (setting [4]) and 0.318 in the assay with RAW-Dual [1] (agonist: LPS (TLR4) 0.1 ug/mL).
On to `CC1=NN(c2ccc(C(=O)O)cc2)C(=O)/C1=C\c1ccc(-c2cc(C)c(C)cc2[N+](=O)[O-])o1`, for which the “IRF Lucia reporter activity” value with RAW-Dual [2] (setting [5]) was found to be 0.846.
On to `c1ccc(C(c2ccccc2)N2CCN(Cc3ccc4c(c3)OCO4)CC2)cc1` (library stock concentration (final ~1000-fold dilution): 10 mM), for which the “IRF Lucia reporter activity” value in the assay with RAW-Dual [1] (setting [4]) stood at 0.791; in the assay with RAW-Dual [1] (agonist: LPS (TLR4) 0.1 ug/mL), 0.74.
Consider `c1ccc(C(c2ccccc2)N2CCN(Cc3ccc4c(c3)OCO4)CC2)cc1`, for which the “IRF Lucia reporter activity” value in the assay with RAW-Dual [2] (setting [5]) was determined as 0.574.
`O=C(O)CCC(=O)c1ccc(-c2ccccc2)cc1`: the “IRF Lucia reporter activity” value in the assay on RAW-Dual [2] (setting [5]) is 1.15.
Regarding `O=C(O)CCC(=O)c1ccc(-c2ccccc2)cc1` (library stock concentration (final ~1000-fold dilution): 10 mM), the “IRF Lucia reporter activity” value with RAW-Dual [1] (setting [4]) turned out to be 1.15; with RAW-Dual [1] (agonist: LPS (TLR4) 0.1 ug/mL), 1.2.
The like results for `CNc1ccc([N+](=O)[O-])c(Nc2ccc3[nH]ncc3c2)n1` (library stock concentration (final ~1000-fold dilution): 10 mM) were, in that order, 0.0349 and 0.0346.
Consider `O=C(c1ccc(Cl)cc1)N(Cc1ccccc1)C1CCCCC1` (library stock concentration (final ~1000-fold dilution): 10 mM), for which the “IRF Lucia reporter activity” value worked out at 1.56 in the assay on RAW-Dual [1] (setting [4]) and 1.11 with RAW-Dual [1] (agonist: LPS (TLR4) 0.1 ug/mL).
As for `O=C(Nc1ccccc1)N1CCN(c2nc(-c3ccccc3)ns2)CC1`, the “IRF Lucia reporter activity” value in the assay with RAW-Dual [2] (setting [5]) was found to be 1.1.
Take `O=C(Nc1ccccc1)N1CCN(c2nc(-c3ccccc3)ns2)CC1` (library stock concentration (final ~1000-fold dilution): 10 mM): the “IRF Lucia reporter activity” value in the assay on RAW-Dual [1] (setting [4]) is 0.61; in the assay on RAW-Dual [1] (agonist: LPS (TLR4) 0.1 ug/mL), 0.914.
For `Clc1cccc(CN=C2Nc3ccccc3NC23CCNCC3)c1` (library stock concentration (final ~1000-fold dilution): 10 mM), in that order: 0.383 and 1.2.
`C/C(=C\C(=O)OCCCCCCCCC(=O)O)CC1OCC(CC2OC2C(C)C(C)O)C(O)C1O` (stereo unspecified): the “IRF Lucia reporter activity” value with RAW-Dual [2] (setting [5]) was 0.932.
For `C/C(=C\C(=O)OCCCCCCCCC(=O)O)CC1OCC(CC2OC2C(C)C(C)O)C(O)C1O` (stereo unspecified) (library stock concentration (final ~1000-fold dilution): 10 mM), the results for the “IRF Lucia reporter activity” value in the assay with RAW-Dual [1] (setting [4]) and with RAW-Dual [1] (agonist: LPS (TLR4) 0.1 ug/mL) were 1.05 and 0.826, respectively.
Regarding `CN(c1ncccc1CNc1nc(Nc2ccc3c(c2)CC(=O)N3)ncc1C(F)(F)F)S(C)(=O)=O` (library stock concentration (final ~1000-fold dilution): 10 mM), the “IRF Lucia reporter activity” value worked out at 0.015 in the assay on RAW-Dual [3] (setting [4]) and 0.0167 with RAW-Dual [3] (agonist: LPS (TLR4) 0.1 ug/mL).
As for `CN(c1ncccc1CNc1nc(Nc2ccc3c(c2)CC(=O)N3)ncc1C(F)(F)F)S(C)(=O)=O`, the “IRF Lucia reporter activity” value with RAW-Dual [2] (setting [6]) came out at 0.0179.
For `CC(=O)N=c1sc(S(N)(=O)=O)nn1C` (library stock concentration (final ~1000-fold dilution): 10 mM), the “IRF Lucia reporter activity” value with RAW-Dual [1] (setting [4]) amounted to 1.01; with RAW-Dual [1] (agonist: LPS (TLR4) 0.1 ug/mL) it was 1.23.
For the molecule `CC(=O)N=c1sc(S(N)(=O)=O)nn1C`, in the assay with RAW-Dual [2] (setting [5]), the “IRF Lucia reporter activity” value stood at 1.08.
In the case of `Nc1cc(C(F)(F)F)c(-c2cc(N3CCOCC3)nc(N3CCOCC3)n2)cn1` (library stock concentration (final ~1000-fold dilution): 10 mM), the “IRF Lucia reporter activity” value was found to be 0.171 with RAW-Dual [1] (setting [4]) and 1.05 in the assay with RAW-Dual [1] (agonist: LPS (TLR4) 0.1 ug/mL).
In the case of `Nc1cc(C(F)(F)F)c(-c2cc(N3CCOCC3)nc(N3CCOCC3)n2)cn1`, in the assay on RAW-Dual [2] (setting [5]), the “IRF Lucia reporter activity” value amounted to 1.09.
With `COCCCOc1ccnc(CS(=O)c2nc3ccccc3[nH]2)c1C` (stereo unspecified), in the assay on RAW-Dual [2] (setting [5]), the “IRF Lucia reporter activity” value was 1.07.
For `COCCCOc1ccnc(CS(=O)c2nc3ccccc3[nH]2)c1C` (stereo unspecified) (library stock concentration (final ~1000-fold dilution): 10 mM), the “IRF Lucia reporter activity” value with RAW-Dual [1] (setting [4]) amounted to 0.92; in the assay with RAW-Dual [1] (agonist: LPS (TLR4) 0.1 ug/mL), 1.14.
Take `Cc1ccc(Sc2cncc3sc(C(N)=O)cc23)cc1`: the “IRF Lucia reporter activity” value in the assay on RAW-Dual [2] (setting [5]) turned out to be 0.166.
`Cc1ccc(Sc2cncc3sc(C(N)=O)cc23)cc1` (library stock concentration (final ~1000-fold dilution): 10 mM): the figures for the “IRF Lucia reporter activity” value in the assay on RAW-Dual [1] (setting [4]) and with RAW-Dual [1] (agonist: LPS (TLR4) 0.1 ug/mL) were 0.152 and 0.134, respectively.
`CC(C)NNC(=O)c1ccncc1`: the “IRF Lucia reporter activity” value with RAW-Dual [2] (setting [5]) worked out at 0.961.
Turning to `CC(C)NNC(=O)c1ccncc1` (library stock concentration (final ~1000-fold dilution): 10 mM), the results for the “IRF Lucia reporter activity” value with RAW-Dual [1] (setting [4]) and with RAW-Dual [1] (agonist: LPS (TLR4) 0.1 ug/mL) were 0.837 and 0.954, respectively.
In the case of `COc1cccc(-c2cc(F)ccc2C2Cc3nc(N)nc(C)c3C(=O)N2)n1` (stereo unspecified), the “IRF Lucia reporter activity” value in the assay on RAW-Dual [2] (setting [5]) was found to be 0.941.
As to `COc1cccc(-c2cc(F)ccc2C2Cc3nc(N)nc(C)c3C(=O)N2)n1` (stereo unspecified) (library stock concentration (final ~1000-fold dilution): 10 mM), the “IRF Lucia reporter activity” value is 0.696 in the assay with RAW-Dual [1] (setting [4]) and 1.18 in the assay on RAW-Dual [1] (agonist: LPS (TLR4) 0.1 ug/mL).
Take `O=c1cc(N2CCOCC2)oc2c(-c3ccccc3)cccc12` (library stock concentration (final ~1000-fold dilution): 10 mM): the “IRF Lucia reporter activity” value in the assay with RAW-Dual [3] (setting [4]) came out at 0.353; in the assay on RAW-Dual [3] (agonist: LPS (TLR4) 0.1 ug/mL), 0.393.
With `O=c1cc(N2CCOCC2)oc2c(-c3ccccc3)cccc12`, the “IRF Lucia reporter activity” value in the assay with RAW-Dual [2] (setting [6]) amounted to 0.627.
With `CC(C)(C)NCC(O)COc1cccc2c1CCC(=O)N2.Cl` (stereo unspecified) (library stock concentration (final ~1000-fold dilution): 10 mM), the “IRF Lucia reporter activity” value with RAW-Dual [1] (setting [4]) stood at 0.982; in the assay with RAW-Dual [1] (agonist: LPS (TLR4) 0.1 ug/mL), 1.22.
For the molecule `CC(C)(C)NCC(O)COc1cccc2c1CCC(=O)N2.Cl` (stereo unspecified), the “IRF Lucia reporter activity” value in the assay with RAW-Dual [2] (setting [5]) was determined as 1.15.
With `C=CCOc1ccccc1OCC(O)CNC(C)C.Cl` (stereo unspecified), the “IRF Lucia reporter activity” value in the assay on RAW-Dual [2] (setting [5]) was determined as 0.866.
Take `C=CCOc1ccccc1OCC(O)CNC(C)C.Cl` (stereo unspecified) (library stock concentration (final ~1000-fold dilution): 10 mM): the “IRF Lucia reporter activity” value with RAW-Dual [1] (setting [4]) is 1.03; with RAW-Dual [1] (agonist: LPS (TLR4) 0.1 ug/mL), 0.805.
Consider `CCOC(N)=O`, for which, in the assay with RAW-Dual [2] (setting [5]), the “IRF Lucia reporter activity” value came out at 1.09.
In the case of `CCOC(N)=O` (library stock concentration (final ~1000-fold dilution): 10 mM), the entries for the “IRF Lucia reporter activity” value in the assay on RAW-Dual [1] (setting [4]) and with RAW-Dual [1] (agonist: LPS (TLR4) 0.1 ug/mL) were 1.1 and 1.34, respectively.
For `CCc1c(N(CC)C2CCOCC2)cc2oc(C3CCN(C(C)C)CC3)cc2c1C(=O)NCc1c(C)cc(C)[nH]c1=O` (library stock concentration (final ~1000-fold dilution): 10 mM), in that order: 1.03 and 1.14.
Consider `COc1cc2ncnc(Nc3ccc(F)c(Cl)c3)c2cc1O`, for which the “IRF Lucia reporter activity” value with RAW-Dual [2] (setting [5]) was 0.506.
With `COc1cc2ncnc(Nc3ccc(F)c(Cl)c3)c2cc1O` (library stock concentration (final ~1000-fold dilution): 10 mM), the “IRF Lucia reporter activity” value was determined as 0.452 in the assay on RAW-Dual [1] (setting [4]) and 0.508 with RAW-Dual [1] (agonist: LPS (TLR4) 0.1 ug/mL).
The like results for `CC(C)NC(=O)C1CCC(n2c(=NC(=O)c3ccc(F)cc3)[nH]c3ccc(CN4CCC(C(C)(C)O)CC4)cc32)CC1` (stereo unspecified) (library stock concentration (final ~1000-fold dilution): 10 mM) were, in that order, 0.193 and 0.812.
